# Reference: PubChem BioAssay AID686978 (National Center for Advancing Translational Sciences (NCATS), 2013)
# Screen size: about 420,000 compounds; about 64,000 (15%) were called active. Inconclusive results, whose numbers are uncertain, are shown with a selection of clear calls. Calls follow the shape of the dose curve; as a rule, active = well fitted inhibition curve with a large enough effect; inconclusive = small, poorly fitted or top-dose-only effect; inactive = flat fitted curve, though single readings scatter. Potencies of inconclusive entries are left out as doubtful fits.
# Experiment: qHTS for Inhibitors of human tyrosyl-DNA phosphodiesterase 1 (TDP1): qHTS in cells in absence of CPT; also: nearly all actives have a fitted effect of over 55% in size
# Settings: DT40 Tdp1-/- hTDP1 cells, no CPT, ATP luminescence, 48 h; activity change, negative = growth inhibition: at 46.2 µM (top of the series) unless noted
# Outline: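 A cellular qHTS used chicken DT40 cells lacking endogenous Tdp1 but carrying stably transfected human TDP1. Compounds were applied without camptothecin, and cell growth kinetics were judged by ATP-dependent luminescence after ≥48 hr.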
# % is scaled to controls: 0 for no effect and ±100 for the full control effect; potency is read from the fitted curve at half-maximal effect; tags tell the direction and shape of the fitted curve.
Structure (SMILES),Potency,"activity change, negative = growth inhibition"
Cc1sc2nc(CSc3ccccc3)nc(NCCN(C)C)c2c1C,"inconclusive [inhibitor, single point]",
Cc1ccc(N2CC(C(=O)N3CCC(C(=O)NC(C)(C)C)CC3)CC2=O)cc1 (stereo unspecified),,inactive: -17.9%
COc1ccc(N2CCN(C(=O)CCNC(=O)Cn3ccc4ccccc4c3=O)CC2)cc1,,inactive: -8.68%
CCn1c2ccccc2c2cc(NC(=O)C(C)C)ccc21,active: 25.9 µM,
CC(NC(=O)c1cccc(S(=O)(=O)N2CCc3ccccc32)c1)c1ccco1 (stereo unspecified),active: 18.4 µM,
COc1ccc(C(=O)Nc2ccccc2)cc1S(=O)(=O)Nc1ccc(Br)cc1,,inactive: -12.4%
O=Cc1ccc2ccc3cccnc3c2n1,active: 3.26 µM,
Cn1c(=O)c2cc(NC(=O)CCc3cccnc3)ccc2n1Cc1ccc(F)cc1,"inconclusive [inhibitor, partial curve]",
NC(=O)c1nsc(C(=O)N(CC(=O)NC2CCCCC2)Cc2ccc3c(c2)OCO3)c1N,"inconclusive [inhibitor, single point]",
CCn1c(-c2ccccc2)csc1=Nc1ccc(O)cc1,"inconclusive [inhibitor, single point]",
O=C(C1CCCN(S(=O)(=O)c2ccc(Cl)cc2)C1)N1CCCC1 (stereo unspecified),"inconclusive [inhibitor, single point]",
CC(C)(C)n1nnnc1C(c1cccs1)N1CCN(Cc2ccc3c(c2)OCO3)CC1 (stereo unspecified),"inconclusive [inhibitor, single point]",
Cc1c(C(=O)Nc2ccccc2)sc2nc(-c3cc4ccccc4oc3=O)[nH]c(=O)c12,,inactive: -24%
COc1ccc(Cl)cc1NC(=O)CNCc1cccs1,"inconclusive [inhibitor, single point]",
COc1ccc(C2/C=C\CN(C(=O)C3CC3)[C@H](Cc3ccccc3)C(=O)N2Cc2ccc(F)cc2)cc1 (stereo partly specified),active: 23.1 µM,
Cc1nc2ccc(C(=O)N3CCN(c4ccccc4)CC3)cn2c1N(C)C(=O)CCc1ccccc1,"inconclusive [inhibitor, single point]",
CCCC[C@@H]1CNC(=S)N1CCCc1cc(OC)c(OC)c(OC)c1,"inconclusive [inhibitor, single point]",
O=C(NCCCN1CCCC(O)C1)c1cc(COc2ccc(F)cc2F)on1 (stereo unspecified),,inactive: -10.8%
O=C(N/N=C\c1ccc(O)c([N+](=O)[O-])c1)c1ccccc1-n1cccc1,"inconclusive [inhibitor, partial curve]",
Brc1ccc2c(c1)CN1CCCC1=N2,active: 20.6 µM,
COc1ccc(NS(=O)(=O)c2cccc(C(=O)NC3CCN(Cc4ccccc4)CC3)c2)cc1,"inconclusive [inhibitor, single point]",
